Experimental data published in paper PMC6172828.
No constants are given. Whether binding was seen depends on the method and setting. In cells and extracts the contact can be indirect. Some binding calls cover weakened binding; strength is not graded here. Tags and fused reporters may be left off the sequences shown.

Sequences of proteins named here, by UniProt entry; tags and fusion partners are left off.
UniProt Q9Z148: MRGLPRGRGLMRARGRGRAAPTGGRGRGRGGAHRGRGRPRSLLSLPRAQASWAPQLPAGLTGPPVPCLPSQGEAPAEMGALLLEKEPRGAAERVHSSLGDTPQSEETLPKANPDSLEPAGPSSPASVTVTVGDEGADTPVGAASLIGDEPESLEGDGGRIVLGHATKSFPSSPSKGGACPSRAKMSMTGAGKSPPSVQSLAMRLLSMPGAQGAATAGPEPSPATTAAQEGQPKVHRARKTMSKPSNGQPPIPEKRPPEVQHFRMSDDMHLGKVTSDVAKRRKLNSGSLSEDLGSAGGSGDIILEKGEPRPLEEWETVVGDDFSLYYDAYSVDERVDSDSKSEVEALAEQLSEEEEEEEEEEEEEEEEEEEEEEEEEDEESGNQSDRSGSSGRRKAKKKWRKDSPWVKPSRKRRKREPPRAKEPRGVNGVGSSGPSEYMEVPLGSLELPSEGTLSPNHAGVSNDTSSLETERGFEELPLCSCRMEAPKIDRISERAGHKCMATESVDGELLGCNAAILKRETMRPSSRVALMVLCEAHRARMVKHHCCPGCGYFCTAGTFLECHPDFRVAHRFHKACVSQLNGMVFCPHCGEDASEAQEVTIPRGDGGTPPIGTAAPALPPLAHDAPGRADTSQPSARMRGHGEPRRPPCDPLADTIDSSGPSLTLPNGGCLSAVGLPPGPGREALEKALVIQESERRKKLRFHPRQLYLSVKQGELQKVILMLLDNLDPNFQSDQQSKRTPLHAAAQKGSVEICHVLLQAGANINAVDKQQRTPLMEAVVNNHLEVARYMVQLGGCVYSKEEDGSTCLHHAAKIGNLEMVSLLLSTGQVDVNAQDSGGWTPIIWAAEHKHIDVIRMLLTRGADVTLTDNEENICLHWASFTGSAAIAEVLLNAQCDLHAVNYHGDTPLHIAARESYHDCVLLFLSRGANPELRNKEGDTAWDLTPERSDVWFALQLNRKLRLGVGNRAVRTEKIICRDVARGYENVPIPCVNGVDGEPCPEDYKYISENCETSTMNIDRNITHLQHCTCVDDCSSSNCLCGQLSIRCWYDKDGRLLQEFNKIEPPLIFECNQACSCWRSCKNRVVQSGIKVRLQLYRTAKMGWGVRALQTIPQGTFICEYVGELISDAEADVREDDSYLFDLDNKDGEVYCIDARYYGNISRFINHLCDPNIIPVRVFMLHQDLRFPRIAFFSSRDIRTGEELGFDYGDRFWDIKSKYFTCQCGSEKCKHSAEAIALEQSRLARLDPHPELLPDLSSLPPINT

Key:
[1] = molecular target: T1, 3xFLAG-tagged ATF7IP K16R mutant (expressed in HEK293T cells) (mouse) (UniProt Q7TT18); assay: co-IP; HEK293T cells co-transfected with G9a or GLP plus 3xFLAG-ATF7IP WT, K16R or Δ(1–16); anti-FLAG M2 agarose; western blot
T1 sequence: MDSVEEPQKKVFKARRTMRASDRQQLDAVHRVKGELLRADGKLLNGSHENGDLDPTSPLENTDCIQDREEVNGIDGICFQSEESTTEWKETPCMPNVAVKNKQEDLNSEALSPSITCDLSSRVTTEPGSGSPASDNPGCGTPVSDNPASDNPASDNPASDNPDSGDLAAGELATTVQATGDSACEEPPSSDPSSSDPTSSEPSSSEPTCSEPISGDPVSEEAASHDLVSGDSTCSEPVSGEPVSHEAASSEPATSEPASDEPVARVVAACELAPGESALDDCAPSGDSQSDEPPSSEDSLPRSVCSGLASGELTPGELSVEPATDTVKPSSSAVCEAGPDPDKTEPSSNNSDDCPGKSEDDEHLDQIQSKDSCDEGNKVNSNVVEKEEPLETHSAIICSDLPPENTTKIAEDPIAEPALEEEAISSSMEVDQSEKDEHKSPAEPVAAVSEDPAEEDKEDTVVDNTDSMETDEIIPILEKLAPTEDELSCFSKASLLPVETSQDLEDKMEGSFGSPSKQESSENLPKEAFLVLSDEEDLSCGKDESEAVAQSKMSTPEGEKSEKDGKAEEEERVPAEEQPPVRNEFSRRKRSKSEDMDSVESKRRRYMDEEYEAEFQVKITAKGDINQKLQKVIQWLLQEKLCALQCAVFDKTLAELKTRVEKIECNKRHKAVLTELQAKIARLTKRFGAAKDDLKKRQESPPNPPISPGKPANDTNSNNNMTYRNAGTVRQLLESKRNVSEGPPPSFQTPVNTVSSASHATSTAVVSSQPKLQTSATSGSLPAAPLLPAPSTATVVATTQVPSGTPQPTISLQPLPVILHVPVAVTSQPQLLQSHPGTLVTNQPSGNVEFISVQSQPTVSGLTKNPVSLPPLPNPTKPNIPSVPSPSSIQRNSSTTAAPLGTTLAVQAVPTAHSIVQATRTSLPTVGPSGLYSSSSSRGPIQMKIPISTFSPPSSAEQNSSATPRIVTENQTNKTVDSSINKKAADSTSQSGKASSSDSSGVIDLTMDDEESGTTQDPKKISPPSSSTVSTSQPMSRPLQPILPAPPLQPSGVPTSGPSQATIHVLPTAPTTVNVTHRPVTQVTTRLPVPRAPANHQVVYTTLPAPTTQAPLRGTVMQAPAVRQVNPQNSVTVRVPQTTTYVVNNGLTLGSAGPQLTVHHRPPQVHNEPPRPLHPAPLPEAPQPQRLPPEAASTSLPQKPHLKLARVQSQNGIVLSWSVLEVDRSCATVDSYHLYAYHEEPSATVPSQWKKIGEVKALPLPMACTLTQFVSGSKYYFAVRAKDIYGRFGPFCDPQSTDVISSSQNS

[2] = molecular target: T2, 3xFLAG-tagged ATF7IP Δ(1–16) mutant (expressed in HEK293T cells) (mouse) (UniProt Q7TT18); assay: as above
T2 sequence: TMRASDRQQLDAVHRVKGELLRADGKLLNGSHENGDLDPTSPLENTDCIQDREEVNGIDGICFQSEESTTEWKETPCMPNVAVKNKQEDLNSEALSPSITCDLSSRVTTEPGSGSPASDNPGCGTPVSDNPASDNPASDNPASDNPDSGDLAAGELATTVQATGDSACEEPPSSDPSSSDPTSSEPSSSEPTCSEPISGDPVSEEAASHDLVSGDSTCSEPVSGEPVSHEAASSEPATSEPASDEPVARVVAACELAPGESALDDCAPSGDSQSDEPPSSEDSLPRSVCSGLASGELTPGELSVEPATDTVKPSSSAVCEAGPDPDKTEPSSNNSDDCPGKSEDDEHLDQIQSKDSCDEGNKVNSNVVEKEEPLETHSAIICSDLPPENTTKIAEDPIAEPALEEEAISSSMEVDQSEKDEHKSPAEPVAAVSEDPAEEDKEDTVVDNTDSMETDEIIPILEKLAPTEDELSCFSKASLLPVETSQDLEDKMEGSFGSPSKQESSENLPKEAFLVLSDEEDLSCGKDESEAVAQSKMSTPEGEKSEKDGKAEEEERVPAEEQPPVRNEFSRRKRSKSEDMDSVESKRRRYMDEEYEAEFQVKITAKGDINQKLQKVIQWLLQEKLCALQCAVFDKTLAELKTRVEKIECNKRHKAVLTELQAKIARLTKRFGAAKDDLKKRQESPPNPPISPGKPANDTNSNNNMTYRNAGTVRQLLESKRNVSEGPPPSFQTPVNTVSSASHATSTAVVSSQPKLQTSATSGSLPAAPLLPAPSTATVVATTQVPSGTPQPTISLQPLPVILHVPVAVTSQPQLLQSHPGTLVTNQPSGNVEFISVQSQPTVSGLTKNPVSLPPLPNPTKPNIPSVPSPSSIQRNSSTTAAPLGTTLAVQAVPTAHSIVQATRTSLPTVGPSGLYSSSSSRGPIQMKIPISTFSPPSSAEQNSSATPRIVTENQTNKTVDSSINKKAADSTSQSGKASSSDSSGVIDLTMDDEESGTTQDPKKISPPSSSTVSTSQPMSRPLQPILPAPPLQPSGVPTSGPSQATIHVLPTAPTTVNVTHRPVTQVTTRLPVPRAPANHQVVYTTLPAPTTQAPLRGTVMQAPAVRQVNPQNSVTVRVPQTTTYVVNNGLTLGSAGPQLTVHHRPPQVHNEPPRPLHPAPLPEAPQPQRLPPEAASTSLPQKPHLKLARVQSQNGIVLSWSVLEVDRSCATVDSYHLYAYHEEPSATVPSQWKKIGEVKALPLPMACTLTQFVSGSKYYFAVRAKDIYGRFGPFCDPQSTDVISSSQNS

Substance: G9a (co-transfected into HEK293T cells) (from UniProt Q9Z148 1-1263) (enzyme)
- binding [1]: binds
- binding [2]: no binding
